These are literature values, as cited in PMC11006913.

What all share (settings): PBM; conditions not shown; double strand, one strand shown; scale: upbm affinity estimate (log intensity, higher = more binding, comparable within an allelic series)
Data set [1] addresses NKX2-5 K183E (Homo sapiens) (UniProt P52952).
For data set [2], the target named is NKX2-5 R161P (Homo sapiens) (UniProt P52952).
Data set [3] concerns the target NKX2-5 R190C (Homo sapiens) (UniProt P52952).
The target of data set [4] is PITX2 L100Q (Homo sapiens) (UniProt Q99697).
Data set [5] has as its target PITX2 R108H (Homo sapiens) (UniProt Q99697).
The target in data set [6] is PITX2 R130W (Homo sapiens) (UniProt Q99697).
Data set [7] has as its target PITX2 T114P (Homo sapiens) (UniProt Q99697).
The target in a further data set is T1, PBX4 (Homo sapiens) (UniProt Q9BYU1).
T1 sequence: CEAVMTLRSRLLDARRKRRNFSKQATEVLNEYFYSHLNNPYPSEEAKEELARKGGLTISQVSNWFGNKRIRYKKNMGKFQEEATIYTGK

The target in data set [8] is T2, PBX4 R215Q (Homo sapiens) (UniProt Q9BYU1).
T2 sequence: T1 sequence with R19Q

For data set [9], the target named is PROP1 R112Q (Homo sapiens) (UniProt O75360).
Data set [10] has as its target PROP1 R99Q (Homo sapiens) (UniProt O75360).

Positions count from the first letter of the chain named. This is one part of the list.

CCGGCCAC [8-mer CCGGCCAC]: the binding signal in data set [1] is 9.98; in data set [2] it was 10.1; in data set [3], 9.87.

Turning to ACCACTTG [8-mer ACCACTTG], the binding signal is 12 in [1], 12.9 in [2] and 10.6 in data set [3].

In the case of AGGCGACC [8-mer AGGCGACC], the binding signal in data set [1], in data set [2] and in [3] was 10.2 throughout.

Consider CACTCAAG [8-mer CACTCAAG], for which the binding signal in [1] is 11.2; in data set [2], 12.4; in data set [3], 10.6.

For the sequence CTGGACCC [8-mer CTGGACCC], the binding signal is 10.3 in data set [1], 10.4 in [2] and 10.2 in data set [3].

As to CAAGTGGC [8-mer CAAGTGGC], the results for the binding signal in data set [1], in [2] and in data set [3] were 11.8, 12.6 and 10.6, respectively.

Consider ACACTTAA [8-mer ACACTTAA], for which the binding signal in data set [1] was 11.5; in data set [2] it was 12.9; in [3] it was 11.

For the sequence CACTTGTA [8-mer CACTTGTA], the results for the binding signal in [1], in data set [2] and in data set [3] were 11.4, 12.5 and 10.8, respectively.

Turning to CGGTGGAA [8-mer CGGTGGAA], the values for the binding signal in data set [1], in data set [2] and in data set [3] were 10.1, 10.3 and 10.2, respectively.

For the sequence CAAGTGGA [8-mer CAAGTGGA], the binding signal was 11.5 in [1], 12.5 in data set [2] and 10.6 in data set [3].

As for GTACTTGA [8-mer GTACTTGA], the binding signal is 11.2 in [1], 13 in [2] and 10.8 in data set [3].

For CCAGCGTA [8-mer CCAGCGTA], the values for the binding signal in data set [1], in data set [2] and in data set [3] were 10.3, 10.5 and 10.4, respectively.

On to CCACTTAA [8-mer CCACTTAA], for which the binding signal was 12.4 in data set [1], 13.3 in data set [2] and 10.7 in data set [3].

Turning to GCCGACCA [8-mer GCCGACCA], the figures for the binding signal in data set [1], in data set [2] and in data set [3] were 10.4, 10.5 and 10.3, respectively.

Regarding CTAAGTGC [8-mer CTAAGTGC], the binding signal in data set [1] is 11.3; in [2], 12.9; in data set [3], 10.7.

As for CACTTAGA [8-mer CACTTAGA], the binding signal was 11.4 in data set [1], 12.4 in data set [2] and 10.7 in [3].

Regarding AAGTACTT [8-mer AAGTACTT], the binding signal is 11.2 in [1], 12.9 in [2] and 10.6 in data set [3].

Regarding CAAAAGTG [8-mer CAAAAGTG], the binding signal in data set [1] is 10.9; in data set [2] it was 11.7; in [3], 10.5.

As to ATAAGTAC [8-mer ATAAGTAC], the binding signal in data set [1] was 11.3; in data set [2], 12.8; in [3] it was 11.

With ACTTAACA [8-mer ACTTAACA], the binding signal in data set [1] was 10.9; in [3] it was 10.8.

Regarding CCGGGCCG [8-mer CCGGGCCG], the binding signal is 9.86 in data set [1]; 10 in data set [2]; 9.82 in data set [3]; 7.96 in [4]; 7.65 in data set [5]; 7.54 in [6]. Moreover, the binding signal in data set [7] was 7.74.

CAAGGGCC [8-mer CAAGGGCC]: the binding signal is 10.5 in data set [1] and 10.1 in data set [3].

Regarding ATTAAGGG [8-mer ATTAAGGG], the binding signal in [1] is 10.9; in data set [3], 10.5.

For GCACTTCC [8-mer GCACTTCC], the binding signal in [1] is 10.5; in data set [3], 10.3.

As for GCTCTTCA [8-mer GCTCTTCA], the binding signal in data set [1] was 10.7; in data set [3], 10.4.

On to CACCCTCA [8-mer CACCCTCA], for which the values for the binding signal in data set [1] and in [3] were 10.6 and 10.3, respectively.

For AAGAGCAT [8-mer AAGAGCAT], the values for the binding signal in data set [1] and in [3] were 11 and 10.8, respectively.

With TACTCCAA [8-mer TACTCCAA], the binding signal was 10.9 in data set [1] and 10.7 in [3].

As to ACGCCCCA [8-mer ACGCCCCA], the binding signal is 10.3 in [1]; 10.6 in data set [2]; 10.2 in [3]; 9.91 with PBX4 (Homo sapiens); 9.84 in data set [8]; 8.52 in data set [4]. Moreover, the binding signal is 8.03 in [5], 8.06 in data set [6] and 8.16 in data set [7].

On to CTCGAGAG [8-mer CTCGAGAG], for which the binding signal in data set [1] was 10.8; in [3], 10.4.

As for ATCTCAAG [8-mer ATCTCAAG], the binding signal was 11 in data set [1] and 10.7 in data set [3].

Turning to GCCACTTA [8-mer GCCACTTA], the binding signal was 12.4 in [1]; 13.2 in data set [2]; 10.8 in data set [3]; 12.1 in data set [9]; 11.9 in data set [10].

Regarding AGTGTCTG [8-mer AGTGTCTG], the values for the binding signal in data set [1] and in data set [3] were 10.8 and 10.7, respectively.

Take CAGGGCGG [8-mer CAGGGCGG]: the binding signal is 10 in data set [1]; 10.1 in data set [2]; 10 in [3]; 8.08 in data set [4]; 8.04 in data set [5]; 7.86 in [6]. Further, the binding signal in [7] was 8.08.

With GCCCTCAA [8-mer GCCCTCAA], the figures for the binding signal in data set [1] and in data set [3] were 10.6 and 10.3, respectively.

For CAAGTAGG [8-mer CAAGTAGG], the values for the binding signal in [1] and in data set [3] were 10.7 and 10.4, respectively.

Regarding CAAGTAGA [8-mer CAAGTAGA], the binding signal was 10.9 in data set [1] and 10.7 in data set [3].

As for CAGCGCCG [8-mer CAGCGCCG], the binding signal is 9.98 in data set [1]; 9.89 in [2]; 10 in [3]; 8.22 in data set [4]; 7.93 in [5]; 7.83 in [6]. The binding signal in [7] was 7.95.

CGCAGGGA [8-mer CGCAGGGA]: the binding signal in data set [1] is 10.1; in data set [2], 10; in data set [3], 10; in data set [4] it was 8.35; in [5], 8.18; in data set [6], 7.99. For the same sequence, the binding signal in [7] was 8.1.

Regarding AGGAGTGC [8-mer AGGAGTGC], the binding signal in [1] is 10.6; in data set [3], 10.4.

For AGTGTTAA [8-mer AGTGTTAA], the binding signal in data set [1] was 11.1; in data set [3], 10.9.

Take ACACTTTC [8-mer ACACTTTC]: the binding signal in data set [1] is 10.9; in data set [3], 10.7.

TCTTAACA [8-mer TCTTAACA]: the binding signal was 11.1 in data set [1] and 10.9 in [3].

For the sequence CTCCACTC [8-mer CTCCACTC], the figures for the binding signal in data set [1] and in [3] were 10.7 and 10.3, respectively.

Turning to ACCCTCTA [8-mer ACCCTCTA], the binding signal in [1] was 10.8; in [3], 10.6.

As to GCTCTCAA [8-mer GCTCTCAA], the binding signal is 10.5 in [1] and 10.3 in data set [3].

Take GACCCTCA [8-mer GACCCTCA]: the binding signal in [1] was 10.5; in data set [3] it was 10.3.

As to AAGGGTCT [8-mer AAGGGTCT], the binding signal in data set [1] was 10.5; in data set [3] it was 10.3.

Consider AGAGTGCG [8-mer AGAGTGCG], for which the binding signal was 10.5 in data set [1] and 10.3 in data set [3].

Turning to AAGAGCCC [8-mer AAGAGCCC], the values for the binding signal in [1] and in data set [3] were 10.4 and 10.2, respectively.

As to CTGGCGGC [8-mer CTGGCGGC], the binding signal was 10.1 in data set [1]; 10.3 in [2]; 10.1 in data set [3]; 11 in [9]; 11 in data set [10].

Consider GACCATTA [8-mer GACCATTA], for which the binding signal in data set [1] is 11; in [3], 10.9.

Turning to CCGGGTCC [8-mer CCGGGTCC], the binding signal in data set [1] is 9.82; in data set [2] it was 10.2; in data set [3] it was 9.83; in data set [9], 10.8; in [10] it was 10.9.

Take CAGGCGCG [8-mer CAGGCGCG]: the binding signal was 10 in [1]; 10.1 in data set [2]; 9.98 in [3]; 8.26 in data set [4]; 8.09 in data set [5]; 8.02 in data set [6]. In addition, the binding signal in [7] was 8.07.

As for GGGGCACC [8-mer GGGGCACC], the binding signal in data set [1] is 10.2; in data set [2], 10.3; in data set [3], 9.99; in [4], 7.87; in data set [5] it was 7.93; in [6], 7.79. Further, the binding signal in data set [7] is 7.96.

Turning to ATCAATTG [8-mer ATCAATTG], the binding signal was 11.3 in data set [1], 11.9 in [2], 11 in data set [3] and 12.5 in data set [9].

As to GAGTGCCC [8-mer GAGTGCCC], the binding signal is 10.5 in data set [1] and 10.1 in [3].

With ACCCTTAG [8-mer ACCCTTAG], the binding signal in data set [1] was 10.5; in data set [3], 10.4.

Regarding ACAATTGA [8-mer ACAATTGA], the binding signal in [9] was 12.3.

On to GCCTCTTA [8-mer GCCTCTTA], for which, in data set [3], the binding signal is 10.3.

On to AAGAGGAC [8-mer AAGAGGAC], for which the binding signal in data set [3] is 10.4.

As for AGAGAGTG [8-mer AGAGAGTG], the binding signal with PBX4 (Homo sapiens) is 9.91; in [8] it was 9.85.

On to ACTTCTTC [8-mer ACTTCTTC], for which the binding signal was 9.99 with PBX4 (Homo sapiens) and 9.96 in data set [8].

As for ACCTATTA [8-mer ACCTATTA], in data set [3], the binding signal is 10.9.

Regarding CCTCTCAG [8-mer CCTCTCAG], the binding signal in data set [3] was 10.2.

Regarding TGAGCGCA [8-mer TGAGCGCA], the binding signal with PBX4 (Homo sapiens) is 9.76; in [8], 9.78.

CCCCTTAA [8-mer CCCCTTAA]: the binding signal in data set [3] was 10.4.

ATGAGAGG [8-mer ATGAGAGG]: in [3], the binding signal was 10.4.
